Results reported in patent US10076533B2, “Acyclic nucleoside phosphonate diesters” (The Regents of the University of California, priority 2013, dated 2018).

Assays:
[1] = system: E377 strain of herpes simplex virus type 1; assay: Antiviral effect in HFF cells infected with HSV-1 (E-377); conditions: for Selectivity Index: HSV-1 (E-377), HFF cells
[2] = system: G strain of herpes simplex virus type 2; assay: Antiviral effect in HFF cells infected with HSV-2, crystal violet; conditions: for Selectivity Index: HSV-2 in HFF cells
[3] = Human alphaherpesvirus 1, HFF, 72 h
[4] = Human alphaherpesvirus 2, HFF, 72 h
[5] = HFF cells infected with HSV-1 (E-377), 3 days, crystal violet
[6] = HFF cells infected with HSV-2, 3 days

| SMILES | Selectivity Index [1] | EC50 [1, 3] | Selectivity Index [2] | EC50 [2, 4] | EC50 [1, 5] | EC50 [2, 6] |
| --- | --- | --- | --- | --- | --- | --- |
| CCCCCCCCCCCCCCCCCCOCCOP(=O)(COCCn1cnc2c(=O)[nH]c(N)nc21)OCc1ccccc1 (racemic) [Compound 1, benzyl octadecyloxyethyl 9-(2-phosphonomethoxyethyl)guanine] | >93 | 1080 nM |  |  |  |  |
| CCCCCCCCCCCCCCCCCCOCCOP(=O)(COCCn1cnc2c(N)ncnc21)OCc1ccccc1 (centres unmarked) [Compound 2, benzyl octadecyloxyethyl 9-(2-phosphonomethoxyethyl)adenine] | <4.2 | > 4000 nM |  |  |  |  |
| CCCCCCCCCCCCCCCCCCOCCOP(=O)(CO[C@H](CO)Cn1cnc2c(N)ncnc21)OCc1ccccc1 (stereo partly drawn) [Compound 218, benzyl octadecyloxyethyl 9-(S)-[3-hydroxy-2-(phosphonomethoxy)propyl] adenine] | 15.8 | 920 nM | 173 | 40 nM |  |  |
| CCCCCCCCCCCCCCCCCCOCCOP(=O)(CO[C@H](CO)Cn1ccc(N)nc1=O)OCc1ccccc1 (stereo partly drawn) [Compound 219, benzyl octadecyloxyethyl 1-(S)-[(3-hydroxy-2-phosphonomethoxy)propyl]cytosine] | 15.4 | 1250 nM | 131 | 100 nM |  |  |
| CCCCCCCCCCCCCCCCCCOCCOP(=O)(CO[C@H](CO)Cn1ccc(=O)[nH]c1=O)OCc1ccccc1 (stereo partly drawn) [Compound 221, benzyl octadecyloxyethyl 9-(S)-[3-hydroxy-2-(phosphonomethoxy)propyl]uracil] |  |  | >2.6 | 3800 nM |  |  |
| CCCCCCCCCCCCCCCCCCOC[C@H](COP(=O)(CO[C@H](CO)Cn1cnc2c(N)ncnc21)OCc1ccccc1)OCc1ccccc1 (stereo partly drawn) [Compound 230, benzyl 1-O-octadecyl-2-O-benzyl-sn-glyceryl 9-(S)-[(3-hydroxypropyl-2-phosphonomethoxy)propyl]adenine] |  |  | 52.2 |  | 2770 nM | 710 nM |
| CCCCCCCCCCCCCCCCCCOC[C@H](COP(=O)(CO[C@H](CO)Cn1ccc(N)nc1=O)OCc1ccccc1)OCc1ccccc1 (stereo partly drawn) [Compound 231, benzyl 1-O-octadecyl-2-O-benzyl-sn-glyceryl 1-(S)-[3-hydroxy-2-(phosphonomethoxy)propyl]cytosine] |  |  | 43.5 |  | 1400 nM | 800 nM |
